Reference: patent US20150045291A1, “LIPOPEPTIDE CONJUGATES COMPRISING SPHINGOLIPID AND HIV GP41 DERIVED PEPTIDES” (priority 2012, published 2015)
Starred links: 1 amine or outer side, 2 acyl side, 3 side chain; linkers in the order of their positions; H or OH if unused. Non-standard residues stand in square brackets, D forms with d. Residues, ends and D or L forms follow the SMILES beside them. Groups on a side chain read outwards from the residue. *: point of attachment. Sphinganine = CCCCCCCCCCCCCCC[C@@H](O)[C@H](CO)N*; CO = O=C([*:1])[*:2]

Test system: HIV-1 envelope mediated cell-cell fusion (TZM-bl target cells and HL 2/3 effector cells)
Conditions: cell-cell fusion system, TZM-bl target cells and HL 2/3 effector cells (footnote d)
Experimental: Cell-cell fusion assay. Effector cells were the ENV expressing cells HL2-3, a Hela derived cell-line which constitutively expresses the HXB2 strain of the HIV-1 ENV glycoprotein along the Tat protein, and as target cells, TZM-bl cells were used. The fusion of HL2-3 cells with TZM-bl cells was assessed through luciferase expression. The TZM-bl cells were seeded at 2×10^4 cells/well overnight in a 96 well plates. […] The cells were cocultured at 37° C. for 6 hours to allow the fusion to occur.

CCCCCCCCCCCCCCC[C@@H](O)[C@H](CO)NC(=O)NCCCC[C@H](NC(=O)[C@@H](NC(=O)[C@H](CCC(=O)O)NC(=O)[C@H](CCCNC(=N)N)NC(=O)[C@H](CC(=O)O)NC(=O)[C@@H](Cc1c[nH]c2ccccc12)NC(=O)[C@@H](CCC(=O)O)NC(=O)[C@H](CCSC)NC(=O)[C@@H](Cc1c[nH]c2ccccc12)NC(=O)[C@@H](N)[C@@H](C)CC)[C@@H](C)CC)C(N)=O [D-peptide-sphing, IwMewDREIK-Sphinganine] (H-I[dW]M[dE][dW]DREIK([CO-Sphinganine])-NH2; N-terminus assumed)
IC50: 288 ± 156 nM | IC90: 2670 ± 540 nM
